{"source": "the supplement of paper PMC10126150", "note": "Sequences with one replicate were seen in a single cluster, so their values are uncertain.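 Note: ATP exposure 15 min at 22 °C before imaging.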"}
{"system": "ATP", "test": "switch fluorescence ratio, 500 uM ATP over buffer (Cy3 cluster intensity, sum of 5 cycles each) (fold (ratio)); higher = stronger signal-on switching upon ATP binding; sequences stand for … in TCGTCGGCAGCGTCAGATGTGTATAAGAGACAGTTTTTTTTTTTTTTTTTTTTTTTTT…TC", "conditions": "aptamer strand: ATP DNA aptamer (quencher-CACCTGGGGGAGTATTGCGGAGGAAGG + anchor), 100 nM annealed; ATP concentration: 500 uM; one replicate", "outline": "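Cy3-labelled switching-strand clusters on a modified Illumina MiSeq flow-cell were annealed to 100 nM quencher-labelled ATP aptamer and imaged first in selection buffer, then after 15 min with 500 uM ATP at 22 °C. NaOH stripping and re-annealing separated each of five buffer/ATP cycles, and clusters outside 100-1000 RFU were excluded. The fluorescence ratio sums target-cycle Cy3 intensity over buffer-cycle Cy3 intensity per cluster and averages it per switch-domain sequence.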"}
{"sequence": "GCCCTACATC", "switch fluorescence ratio": 0.969}
{"sequence": "GCCCTTGAGT", "switch fluorescence ratio": 0.962}
{"sequence": "GCCCTTGGGT", "switch fluorescence ratio": 1.01}
{"sequence": "GCCGAAAAT", "switch fluorescence ratio": 0.984}
{"sequence": "GCCGACTCGC", "switch fluorescence ratio": 1.13}
{"sequence": "GCCGAGCCCT", "switch fluorescence ratio": 0.993}
{"sequence": "GCCGAGCGG", "switch fluorescence ratio": 1.01}
{"sequence": "GCCGAGGATG", "switch fluorescence ratio": 0.978}
{"sequence": "GCCGAGGCGT", "switch fluorescence ratio": 1.01}
{"sequence": "GCCGAGTTTT", "switch fluorescence ratio": 1.06}
{"sequence": "GCCGATGTCG", "switch fluorescence ratio": 0.986}
{"sequence": "GCCGCACGA", "switch fluorescence ratio": 1.7}
{"sequence": "GCCGCATCGG", "switch fluorescence ratio": 1.04}
{"sequence": "GCCGCCAGTT", "switch fluorescence ratio": 1.03}
{"sequence": "GCCGCCATAG", "switch fluorescence ratio": 4.18}
{"sequence": "GCCGCCGGTT", "switch fluorescence ratio": 1.1}
{"sequence": "GCCGCGCCGT", "switch fluorescence ratio": 1.01}
{"sequence": "GCCGCGGTTT", "switch fluorescence ratio": 1.63}
{"sequence": "GCCGCTCTTA", "switch fluorescence ratio": 1.01}
{"sequence": "GCCGGACACT", "switch fluorescence ratio": 1.03}
{"sequence": "GCCGGAGCT", "switch fluorescence ratio": 1.1}
{"sequence": "GCCGGAGTTG", "switch fluorescence ratio": 1.02}
{"sequence": "GCCGGCCTCA", "switch fluorescence ratio": 0.98}
{"sequence": "GCCGGCGGAC", "switch fluorescence ratio": 1.01}
{"sequence": "GCCGGTTGGG", "switch fluorescence ratio": 0.967}
{"sequence": "GCCGTAGTTT", "switch fluorescence ratio": 1.03}
{"sequence": "GCCGTCCGCT", "switch fluorescence ratio": 1.08}
{"sequence": "GCCGTCTGGA", "switch fluorescence ratio": 1.03}
{"sequence": "GCCGTGGGCA", "switch fluorescence ratio": 1.01}
{"sequence": "GCCGTGTGTG", "switch fluorescence ratio": 1.01}
{"sequence": "GCCGTTCAGG", "switch fluorescence ratio": 1.01}
{"sequence": "GCCTACAGCC", "switch fluorescence ratio": 1.01}
{"sequence": "GCCTAGAGAA", "switch fluorescence ratio": 1.03}
{"sequence": "GCCTATAATG", "switch fluorescence ratio": 1.01}
{"sequence": "GCCTATAGAT", "switch fluorescence ratio": 0.979}
{"sequence": "GCCTATATGG", "switch fluorescence ratio": 0.955}
{"sequence": "GCCTATGG", "switch fluorescence ratio": 1}
{"sequence": "GCCTCATCCA", "switch fluorescence ratio": 1.03}
{"sequence": "GCCTCATTC", "switch fluorescence ratio": 0.935}
{"sequence": "GCCTCCATCG", "switch fluorescence ratio": 1.13}
{"sequence": "GCCTCCCACG", "switch fluorescence ratio": 1.05}
{"sequence": "GCCTCGAGGC", "switch fluorescence ratio": 0.992}
{"sequence": "GCCTCGGCGT", "switch fluorescence ratio": 0.977}
{"sequence": "GCCTGAATCA", "switch fluorescence ratio": 0.946}
{"sequence": "GCCTGAATCC", "switch fluorescence ratio": 1.38}
{"sequence": "GCCTGACGAA", "switch fluorescence ratio": 1.73}
{"sequence": "GCCTGACTGT", "switch fluorescence ratio": 1.06}
{"sequence": "GCCTGATTGT", "switch fluorescence ratio": 0.998}
{"sequence": "GCCTGCCCAA", "switch fluorescence ratio": 1.28}
{"sequence": "GCCTGTATGC", "switch fluorescence ratio": 0.952}
{"sequence": "GCCTTACCA", "switch fluorescence ratio": 1.04}
{"sequence": "GCCTTAGAAA", "switch fluorescence ratio": 0.99}
{"sequence": "GCCTTAGCTT", "switch fluorescence ratio": 1.07}
{"sequence": "GCCTTATCAG", "switch fluorescence ratio": 0.971}
{"sequence": "GCCTTCTGTC", "switch fluorescence ratio": 0.931}
{"sequence": "GCCTTGAAAC", "switch fluorescence ratio": 1.01}
{"sequence": "GCCTTGGTAG", "switch fluorescence ratio": 1.03}
{"sequence": "GCCTTGGTCG", "switch fluorescence ratio": 1.03}
{"sequence": "GCCTTTAGCA", "switch fluorescence ratio": 1.04}
{"sequence": "GCCTTTATGA", "switch fluorescence ratio": 1.02}
{"sequence": "GCCTTTGGGC", "switch fluorescence ratio": 0.944}
{"sequence": "GCCTTTTAGA", "switch fluorescence ratio": 1}
{"sequence": "GCCTTTTGT", "switch fluorescence ratio": 0.98}
{"sequence": "GCGAACCCTC", "switch fluorescence ratio": 1.09}
{"sequence": "GCGAACGTTC", "switch fluorescence ratio": 1.02}
{"sequence": "GCGAACTCTT", "switch fluorescence ratio": 1}
{"sequence": "GCGACAACAT", "switch fluorescence ratio": 1.12}
{"sequence": "GCGACCGTCA", "switch fluorescence ratio": 1.03}
{"sequence": "GCGACTGAAC", "switch fluorescence ratio": 1.21}
{"sequence": "GCGACTTATG", "switch fluorescence ratio": 1.01}
{"sequence": "GCGAGCAAAC", "switch fluorescence ratio": 1.09}
{"sequence": "GCGAGCAGGG", "switch fluorescence ratio": 1.04}
{"sequence": "GCGAGCTCTT", "switch fluorescence ratio": 1.02}
{"sequence": "GCGAGCTT", "switch fluorescence ratio": 0.982}
{"sequence": "GCGAGGCTCC", "switch fluorescence ratio": 1.34}
{"sequence": "GCGAGGCTGT", "switch fluorescence ratio": 1.11}
{"sequence": "GCGAGGTCAG", "switch fluorescence ratio": 0.971}
{"sequence": "GCGAGTACTG", "switch fluorescence ratio": 1.04}
{"sequence": "GCGAGTCAGA", "switch fluorescence ratio": 0.997}
{"sequence": "GCGAGTCCGG", "switch fluorescence ratio": 1.11}
{"sequence": "GCGAGTTGAA", "switch fluorescence ratio": 0.988}
{"sequence": "GCGATAGATC", "switch fluorescence ratio": 1.01}
{"sequence": "GCGATCGGGA", "switch fluorescence ratio": 1.01}
{"sequence": "GCGATCGGGG", "switch fluorescence ratio": 0.958}
{"sequence": "GCGATGATCG", "switch fluorescence ratio": 0.979}
{"sequence": "GCGATGCGGC", "switch fluorescence ratio": 1.14}
{"sequence": "GCGATGTTGT", "switch fluorescence ratio": 1.01}
{"sequence": "GCGATGTTTC", "switch fluorescence ratio": 1.1}
{"sequence": "GCGATTACA", "switch fluorescence ratio": 0.967}
{"sequence": "GCGATTGGCG", "switch fluorescence ratio": 0.982}
{"sequence": "GCGCAAG", "switch fluorescence ratio": 1.13}
{"sequence": "GCGCAAGAGA", "switch fluorescence ratio": 1.06}
{"sequence": "GCGCAATGGG", "switch fluorescence ratio": 1.28}
{"sequence": "GCGCACGGTT", "switch fluorescence ratio": 1.13}
{"sequence": "GCGCAGTAAG", "switch fluorescence ratio": 1.03}
{"sequence": "GCGCATAAT", "switch fluorescence ratio": 1}
{"sequence": "GCGCATCATC", "switch fluorescence ratio": 1.34}
{"sequence": "GCGCATTTTG", "switch fluorescence ratio": 1.07}
{"sequence": "GCGCCACTT", "switch fluorescence ratio": 1.01}
{"sequence": "GCGCGAAGGT", "switch fluorescence ratio": 1.04}
{"sequence": "GCGCGAGAGG", "switch fluorescence ratio": 0.989}
